In the test the test system is Magnaporthe grisea; Anamorph: Pyricularia oryzae. It counts as in vivo. Also on record: key: A: 80-100; B: More than 0-Less than 80; C: Not Tested; D: No activity noticed in this bioassay. To be noted: 100 ppm; 1 Day Protectant; Rice Blast.

Each structure is given as a SMILES string.

These results are taken from patent US9265253B2, “Use of macrocyclic picolinamides as fungicides” (DOW AGROSCIENCES LLC, priority 2013, dated 2016).

In the case of `C=CCO[C@@H]1[C@@H](Cc2ccc(F)cc2)CCC[C@H](NC(=O)c2nccc(OC)c2OCOC(=O)COCC)C(=O)O[C@H]1C` [Compound F166], the “Disease Control PYRIOR 1 DP” value is recorded as “D”.

For `CCOCC(=O)OCOc1c(OC)ccnc1C(=O)N[C@H]1CCC[C@H](Cc2ccc(F)cc2)[C@@H](OCC(C)C)[C@H](C)OC1=O` [Compound F168], the “Disease Control PYRIOR 1 DP” value was “D”.
